Source: publication PMC4336329 (PLoS ONE, 2015)
In all, about 310,000 compounds went through this assay and about 2,200 (0.71%) showed an effect of 50% or more. The effect is printed as a negative number. The list shows a part of the results.

What follows are compounds tested against human ether-à-go-go-related gene (hERG) potassium channel (human, UniProt Q12809) (assay: primary screen, population patch clamp on CHO cells stably expressing hERG).
human ether-à-go-go-related gene (hERG) potassium channel, sequence (Q12809 whole entry, looked up): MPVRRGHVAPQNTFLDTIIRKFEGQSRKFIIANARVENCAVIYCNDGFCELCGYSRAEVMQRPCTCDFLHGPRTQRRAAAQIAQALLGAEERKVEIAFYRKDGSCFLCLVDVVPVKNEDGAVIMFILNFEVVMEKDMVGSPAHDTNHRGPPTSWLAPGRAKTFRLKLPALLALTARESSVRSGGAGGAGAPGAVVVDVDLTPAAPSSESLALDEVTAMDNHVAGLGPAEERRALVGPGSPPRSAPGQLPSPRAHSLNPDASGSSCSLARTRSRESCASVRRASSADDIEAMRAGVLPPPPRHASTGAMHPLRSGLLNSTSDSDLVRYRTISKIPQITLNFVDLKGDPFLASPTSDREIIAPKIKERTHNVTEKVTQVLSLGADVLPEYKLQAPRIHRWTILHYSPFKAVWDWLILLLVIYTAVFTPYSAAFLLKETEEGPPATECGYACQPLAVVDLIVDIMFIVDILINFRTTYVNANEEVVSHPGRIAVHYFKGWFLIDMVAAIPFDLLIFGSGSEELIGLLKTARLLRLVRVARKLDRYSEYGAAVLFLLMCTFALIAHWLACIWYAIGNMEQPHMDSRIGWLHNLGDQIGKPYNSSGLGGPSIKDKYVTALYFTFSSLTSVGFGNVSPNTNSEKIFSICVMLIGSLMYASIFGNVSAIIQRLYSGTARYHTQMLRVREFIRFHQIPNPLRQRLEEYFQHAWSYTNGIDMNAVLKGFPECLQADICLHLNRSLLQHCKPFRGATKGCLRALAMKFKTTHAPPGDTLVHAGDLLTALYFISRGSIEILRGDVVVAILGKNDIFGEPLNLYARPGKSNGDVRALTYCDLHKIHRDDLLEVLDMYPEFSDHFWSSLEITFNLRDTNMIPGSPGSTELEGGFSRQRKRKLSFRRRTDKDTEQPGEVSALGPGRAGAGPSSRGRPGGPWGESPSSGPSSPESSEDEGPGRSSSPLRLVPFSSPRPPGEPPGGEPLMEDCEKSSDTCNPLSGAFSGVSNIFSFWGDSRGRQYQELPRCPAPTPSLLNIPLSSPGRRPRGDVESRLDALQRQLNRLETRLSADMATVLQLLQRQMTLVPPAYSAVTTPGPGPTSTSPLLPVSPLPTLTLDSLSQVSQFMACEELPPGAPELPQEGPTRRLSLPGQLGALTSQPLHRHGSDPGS

Row | SMILES | hERG current change (%, negative = inhibition) at 1uM
1 | O=C(NNC(=O)C12CC3CC(CC(Cl)(C3)C1)C2)c1ccncc1 | 8.24%
2 | Cc1onc(-c2ccccc2)c1C(=O)N1CCN(S(=O)(=O)c2ccccc2Br)CC1 | 13.5%
3 | O=C(CNCCc1ccc(Cl)cc1)Nc1ccc(C(=O)N2CCCCC2)cc1.O=C(O)C(=O)O | 11.1%
4 | O=S(=O)(NCc1ccncc1)c1ccc(S(=O)(=O)NCC2CCCO2)cc1 (centres unmarked) | -0.898%
5 | COc1ccc(CNC(=O)C(c2ccncc2)N(C(=O)Cc2cccs2)c2ccc(C)cc2)cc1 (centres unmarked) | 3.87%
6 | Cc1cccc(C)c1OCC(=O)Nc1ccc2c(c1)C(=O)NC2=O | 6.98%
7 | O=C(CCN1C(=O)S/C(=C\c2ccccc2)C1=O)NC1CCS(=O)(=O)C1 (centres unmarked) | 9.5%
8 | COc1ccccc1C(CNC(=O)c1ccc(S(=O)(=O)NCc2ccco2)cc1)N(C)C (centres unmarked) | 2.4%
9 | O=C1C(=O)N(Cc2cccnc2)C(c2ccccn2)/C1=C(/O)c1ccccc1 (centres unmarked) | 6.88%
10 | O=c1cc(-c2ccccc2Cl)oc2c([N+](=O)[O-])c(O)cc(O)c12 | 10.4%
11 | COc1ccc(C(=O)N2CCN(c3ccc([N+](=O)[O-])c(-n4nc(C)cc4C)c3)CC2)cc1 | -80.6%
12 | Cc1cc(OC(=O)C2CC2)c([N+](=O)[O-])c(=O)[nH]1 | 6.45%
13 | CCNC(=S)NNC(=O)c1cccc(Br)c1 | 13.8%
14 | CC(C)C(=O)N1CCN(c2ccc(NC(=S)NC(=O)c3cc4ccccc4o3)cc2)CC1 | -0.847%
15 | Cc1cccc(NC(=O)CC2SC(=O)N(c3ccccc3)C2=O)c1 (centres unmarked) | 11.4%
16 | O=C(Nc1ccc(F)cc1)Nc1cccc(Br)c1 | 9.18%
17 | O=C(NCCN1CCOCC1)c1cc2n(n1)C(C(F)(F)F)CC(c1ccc(F)cc1)N2 (centres unmarked) | 5.95%
18 | S=C(c1ccccc1)N1CCCC1 | 14.5%
19 | CC(CCc1ccc(O)cc1)NC1C2CC3CC(C2)CC1C3 (centres unmarked) | -0.0399%
20 | CCOc1ccc(NS(=O)(=O)c2ccc(C(=O)N3CCN(c4ncccn4)CC3)cc2)cc1 | 3.38%
21 | CCc1ccc(C(C)NC(=O)Cn2cnc3c(=O)n(C)c(=O)n(C)c32)cc1 (centres unmarked) | -1%
22 | O=C(Nc1cccnc1)c1ccccc1Cl | 0.408%
23 | CCOC(=O)c1[nH]c2ccc(Cl)cc2c1NC(=O)c1nonc1C | 12%

Row | SMILES | hERG current change (%, negative = inhibition) at 1uM
24 | COCCNC(=O)/C(C#N)=C/c1ccc(-c2ccc(OC)cc2[N+](=O)[O-])o1 | -6.06%
25 | COc1ccc(-n2c(CCc3ccccc3)n[nH]c2=S)cc1 | 15.8%
26 | Cc1cc(-c2ccco2)n(CC(=O)NCc2ccco2)n1 | 16.3%
27 | O=C(O)CC(CC(=O)Nc1nncs1)c1ccccc1 (centres unmarked) | 8.87%
28 | CCC1(c2ccc(OC)cc2)NC(=O)N(CC(=O)c2ccc3c(c2)OCCO3)C1=O (centres unmarked) | 10.7%
29 | COCCNC(=O)C1Nc2ccc(OC(F)(F)F)cc2C2C=CCC12 (centres unmarked) | 4.25%
30 | CC(C)c1c(O)nc(SCC(=O)N2CCOCC2)[nH]c1=O | -2.63%
31 | FC(F)(F)c1cccc(CNC2CCN(Cc3ccccc3)CC2)c1 | 11.8%
32 | CC(=O)C[C@H]1c2cc(C(F)(F)F)ccc2S(=O)(=O)N1C1CCCC1 | 9.82%
33 | C=CCOc1ccc(Cl)cc1C(=O)O | 7.8%
34 | Cc1ccc(-c2cn(CCN)c(-c3ccncc3)n2)cc1 | 1.22%
35 | CC1Cc2nc(SCC(=O)N3CCCC3)n(C)c(=O)c2S1 (centres unmarked) | 1.54%
36 | Cc1ccc(NC(=O)c2ccc(CSc3nnc(-c4ccncc4)n3C)cc2)c(C)c1 | 4.59%
37 | CC(=O)c1cccc(CN2CCN(Cc3ccccc3)C(CCO)C2)c1 (centres unmarked) | 2.26%
38 | CCOC(=O)Cc1cc(-c2ccc(O)cc2)nc2ccc3ccccc3c12 | -2.68%
39 | CC1C(c2cccs2)=[N+]([O-])C(C)(C(=O)c2cccs2)N1O (centres unmarked) | 17.5%
40 | CCOC(=O)c1cc(-c2ccco2)nc2c1c(C)nn2-c1ccccc1 | 15.1%
41 | N#Cc1ccccc1OCC(=O)NNC(=O)c1ccncc1 | 19.1%
42 | Clc1ccc(CNC23CN4CN(CN(C4)C2)C3)c(Cl)c1 | 10.3%
43 | CC(=O)Nc1ccc(CN2CCN(C3CCCCC3)C(CCO)C2)cc1 (centres unmarked) | 12.7%
44 | COc1ccccc1/C=N/NC(=O)C(C)Cn1cnc2ccccc21 (centres unmarked) | 9.28%
45 | CCC(C)NS(=O)(=O)c1ccc(S(=O)(=O)N(CCc2ccc(OC)c(OC)c2)Cc2cccs2)cc1 (centres unmarked) | 3.7%
46 | CN1CCN(c2nc(-c3cccnc3)nc3ccccc23)CC1 | 3.46%

Row | SMILES | hERG current change (%, negative = inhibition) at 1uM
47 | COc1ccc(OC)c(NC(=O)CSc2nnnn2C)c1 | 14.5%
48 | CCN1CCN(C2=C(NS(=O)(=O)c3ccc(Br)cc3)C(=O)c3ccccc3C2=O)CC1 | -25.7%
49 | Br.Cn1c(=N)n(CC(=O)c2cccs2)c2ccccc21 | 8.95%
50 | Cc1noc(NS(=O)(=O)c2ccc(NC(=O)C(C)C)cc2)c1C | 16.7%
51 | COc1cc(O)c(C(CC(=O)N2CCN(c3ccccc3)CC2)c2cc(OC)c(OC)c(OC)c2)c(OC)c1 (centres unmarked) | 23.2%
52 | Cc1ccc2nc(NC(=O)CN(C)S(=O)(=O)c3cccc4nsnc34)sc2c1 | 17.2%
53 | Cc1onc(-c2ccc(Cl)cc2Cl)c1-c1csc(COc2ccccc2)n1 | 11.7%
54 | CCCCOc1cccc(/C=N/NC(=O)c2csc(C)c2C)c1 | 10.6%
55 | Cc1cc(C)c(NC(=O)CS(=O)CC(=O)Nc2cccnc2)c(C)c1 (centres unmarked) | 2.66%
56 | O=C(CCc1ccc(S(=O)(=O)NC2CCCCC2)cc1)NCc1ccccc1 | 3.89%
57 | CCCC(CCC)C(=O)Nc1cccc(-c2cn3c(n2)SCC3)c1 | 12.8%
58 | O=C(CCCN1C(=O)c2ccccc2C1=O)Oc1ccc(F)cc1 | -3.02%
59 | CCOC(=O)CSc1nc2ccc(S(=O)(=O)N3CCOCC3)cc2[nH]1 | 22%
60 | O=C(Nc1ccc2c(c1)OCO2)c1cccc(Cl)c1 | 7.16%
61 | O=C1NC2(CCCCC2)NN1c1ccccc1 | 15.5%
62 | O=C(OC1CCCCC1)c1ccc(NC(=O)c2ccco2)cc1 | -16.6%
63 | Cc1cc(C)c(C)c(S(=O)(=O)N[C@@H](C)C(=O)OCc2cc(=O)n3cc(Br)ccc3n2)c1C | -10.2%
64 | COc1ccc(/C=C/c2nnc(NC(=O)COc3ccc(C)cc3)s2)cc1 | 8.37%
65 | O=S(=O)(c1ccccc1Cl)N1CCC(O)(c2cccnc2)CC1 | 13.8%
66 | O=c1cc(CN2CCc3ccccc32)c2ccc(O)cc2o1 | 12%
67 | Cc1cc(=O)oc(C)c1C(=O)NCCC1=CCCCC1 | 0.393%
68 | COCCNC(=O)CCn1nc(-c2ccc(C)cc2)c2ccccc2c1=O | -0.937%
69 | O=C(CS(=O)(=O)c1ccccc1Cl)N1CCOCC1 | 7.8%

Row | SMILES | hERG current change (%, negative = inhibition) at 1uM
70 | COc1ccccc1/C=C\C=N\NC(=O)c1ccco1 | 1.7%
71 | O=C(Nc1ccccc1N1CCOCC1)c1cccc(S(=O)(=O)Nc2ccccc2F)c1 | -1.98%
72 | O=C(Cc1ccccc1)NCC(=O)Nc1cccc(Br)c1 | 6.25%
73 | NCCCC[C@H]1CNC(=S)N1CCc1cccc(F)c1 | 4.42%
74 | COc1ccc2oc(C(=O)N(Cc3ccco3)Cc3cccs3)c(C)c2c1 | 4.93%
75 | CN(N)c1nc2ccccc2nc1C(F)(F)F | 12.2%
76 | O=C(c1cc(COc2ccc(F)cc2Cl)on1)N1CCCCC1c1cccnc1 (centres unmarked) | -9.34%
77 | O=C(O)CCN1C(=O)/C(=C\c2cccc(OCC(=O)Nc3ccc(Cl)cc3)c2)SC1=S | 8.14%
78 | COc1ccccc1N1CCN(/N=C\c2ccccc2)CC1 | 7.75%
79 | COc1ccc(-c2cc(C(=O)NN)[nH]n2)cc1OC | 5.53%
80 | S=c1[nH]nc(-c2ccco2)n1/N=C/C(Cl)=C/c1ccccc1 | 13.5%
81 | CCc1cc(C(=O)OC)c(NC(=O)CC2SC(=NC)N(C)C2=O)s1 (centres unmarked) | 9.92%
82 | O=C(CCc1nnc2ccc(NCCCN3CCCC3=O)nn12)NCc1ccccc1Cl | 2.58%
83 | COc1ccc(NC(=O)Nc2ccon2)c(OC)c1 | 12.6%
84 | CN1CCN(C(=O)c2cccc(COc3cc(Cl)ccc3Cl)c2)CC1 | -12.3%
85 | CCOc1ccc(NC(=O)/C(C#N)=C/c2cn(CC(=O)O)c3ccccc23)cc1 | 11.3%
86 | c1ccc(CO/N=C(\c2ccc(C3CC3)nc2)C2CC2)cc1 | 6%
87 | CCC(C)c1ccc(NC(=O)COC(=O)c2nc3nccc(C)n3n2)cc1 (centres unmarked) | 4.01%
88 | CC(C)CC(C(=O)NC(C)(C)C)N(Cc1ccccc1Cl)C(=O)c1snc(C(N)=O)c1N (centres unmarked) | 8.04%
89 | CC(C)(C)NC(=O)C(Cc1ccccc1)N1C(=O)c2ccccc2C1=O (centres unmarked) | 12.3%
